PubChem BioAssay (Tox21)
Where “and” joins values, the source holds several entries; their conditions need not be identical. Equal entries are not always repeated. The shares of active, inactive and inconclusive entries below differ from those in the screen. No potency is given beside an inconclusive call; the fits are too rough. Calls of active or inactive are those of the source. Unless noted, calls come from the whole dose curve; as a rule, active = well fitted cell-killing curve with a large enough effect in the repeat runs; inconclusive = weak or mixed curves, or effect the other way; inactive = no such curve, though single readings can be large or run the other way.

Test: qHTS assay for small molecule agonists of the antioxidant response element (ARE) signaling pathway (AID 743202; active = well fitted activation curve with a large enough effect in the signal ratio in the repeat runs, not every such curve was filed as active; inconclusive = weak or mixed curves, or effect the other way; inactive = no such curve, though single readings can be large or run the other way; the % refers to the signal ratio)
Details: HepG2 ARE-bla reporter, beta-lactamase FRET, 16 h; activation: at 73.3 µM (top of the series) unless noted
Method in brief: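 An ARE-responsive beta-lactamase gene stably integrated in HepG2 cells serves as reporter. After 5 h plating and 16 h compound incubation at 37 C, fluorescence of the B/G FRET substrate was measured.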
% is set by controls: 0 for no effect and ±100 for the full control effect; potency is the fitted concentration of half-maximal effect; tags give direction and shape of the fitted curve.

Q: With `CC1c2ccccc2CN1NC(=O)c1ccc(Cl)c(S(N)(=O)=O)c1` (configuration not stated) as the compound, how does the “activation” value read?
A: inactive: 4.26%

Q: For `CO[C@H]1C=CO[C@@]2(C)Oc3c(C)c(O)c4c(O)c(c5c(c4c3C2=O)=NC2(CCN(CC(C)C)CC2)N=5)NC(=O)/C(C)=C\C=C/[C@H](C)[C@H](O)[C@@H](C)[C@@H](O)[C@@H](C)[C@H](OC(C)=O)[C@@H]1C`, which Potency is on record?
A: inconclusive

Q: For `NC(=O)CCCCC(N)=O`, which activation is on record?
A: inconclusive: 3.73%

Q: For `S=C([S-])NCCNC(=S)[S-].S=C([S-])NCCNC(=S)[S-].[Mn+2].[Zn+2]`, which Potency is on record?
A: active: 4.73 µM

Q: Which Potency does the source give for `Nc1ccc2c3c(cccc13)-c1ccccc1-2` here?
A: inconclusive [rising, partial curve]

Q: Which Potency does the source give for `CN1CCC(Nc2ncc3ncnc(Nc4ccc(F)c(Cl)c4)c3n2)CC1` here?
A: inconclusive [rising, partial curve]

Q: With `CC1(C)C(=O)N(Br)C(=O)N1Cl` as the compound, how does the Potency read?
A: inconclusive [rising, partial curve]

Q: Which “activation” value does the source give for `CCCCCCCC(=O)OCCCCCC` here?
A: inactive: -0.217%

Q: With `Clc1nnc(Cl)c2ccccc12` as the compound, how does the Potency read?
A: inconclusive [falling, partial curve, poor fit]

Q: With `O=C(CCCN1CCN(c2ccc(F)cc2)CC1)NC1c2ccccc2CSc2ccccc21` (configuration not stated) as the compound, how does the activation read?
A: inconclusive: -18.3%

Q: Which Potency does the source give for `CCOC(=O)c1ccc(C2CCC(NC[C@H](O)COc3ccc(O)c(NS(C)(=O)=O)c3)CC2)cc1` (some centres not stated) here?
A: inconclusive [falling, single point]

Q: With `Oc1ccc2ccccc2c1` as the compound, how does the Potency read?
A: active: 35.2 µM and active: 21.7 µM

Q: For `Fc1ccc([C@@H]2CCNC[C@H]2COc2ccc3c(c2)OCO3)cc1`, which Potency is on record?
A: inconclusive [falling, partial curve, poor fit]

Q: Which Potency does the source give for `CC(C)(C)c1csc(-c2cc3cc(OCc4ccccc4CC(=O)O)ccc3o2)n1` here?
A: active: 4.86 µM

Q: Which “activation” value does the source give for `OCCN1CCN(CCCN2c3ccccc3C=Cc3ccccc32)CC1` here?
A: inactive: -10.6%

Q: With `CCCCN1CCCC1C(=O)Nc1c(C)cc(C)cc1C` (configuration not stated) as the compound, how does the “activation” value read?
A: inactive: -10.4%

Q: Which Potency does the source give for `COC(=O)C1=C(C)NC(C)=C(C(=O)OCCN2CCN(C(c3ccccc3)c3ccccc3)CC2)C1c1cccc([N+](=O)[O-])c1` (configuration not stated) here?
A: inconclusive [rising, full curve, poor fit]

Q: Which “activation” value does the source give for `CNS(=O)(=O)CCc1ccc2[nH]cc(C3CCN(C)CC3)c2c1` here?
A: inactive: -6.18%

Q: With `CNC[C@H](O)c1ccc(O)c(O)c1` as the compound, how does the Potency read?
A: inactive

Q: With `COc1c(C)c2c(c(O)c1C/C=C(\C)CCC(=O)OCCN1CCOCC1)C(=O)OC2` as the compound, how does the Potency read?
A: inconclusive [rising, full curve]

Q: With `O=C1c2ccccc2C(=O)C1c1ccc2ccccc2n1` as the compound, how does the Potency read?
A: inconclusive [falling, partial curve, poor fit]

Q: Which Potency does the source give for `CC[C@H](NC(=O)c1cc(F)ccc1NS(=O)(=O)c1cccc2cccnc12)c1ccccc1` here?
A: inconclusive [rising, partial curve]

Q: With `CN(CCCN1c2ccccc2CCc2ccccc21)CC(=O)c1ccc(Cl)cc1` as the compound, how does the Potency read?
A: inconclusive [rising, partial curve]

Q: Which activation does the source give for `CCCCCCCCCCCSCC(=O)O` here?
A: inconclusive: -7.14%

Q: Which activation does the source give for `CCOC(=O)c1ccc(NC(=O)CN2CCCCC2)cc1` here?
A: inconclusive: 15.6%

Q: With `O=C(N[C@@H](c1ccccc1)[C@@H]1CCCCN1)c1cccc(C(F)(F)F)c1Cl` as the compound, how does the Potency read?
A: inconclusive

Q: For `CC(C)(Cc1c[nH]c2ccccc12)NCC(O)COc1ccccc1C#N` (configuration not stated), which Potency is on record?
A: inconclusive [falling, partial curve, poor fit]

Test: qHTS assay for small molecule agonists of the antioxidant response element (ARE) signaling pathway - cell viability counter screen (AID 743203; calls by dose curve; note: nearly all actives have a fitted effect of over 55% in size)
Details: ARE-bla HepG2 viability, CellTiter-Glo luminescence, 16 h; viability change, negative = cytotoxic: at 73.3 µM (top of the series)
Method in brief: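 Following 16 hrs of compound treatment at 37C, HepG2 cells with an ARE-controlled beta-lactamase gene were lysed with CellTiter-Glo. Luminescence was read after 30 min at room temperature.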

Q: With `CO[C@H]1C=CO[C@@]2(C)Oc3c(C)c(O)c4c(O)c(c5c(c4c3C2=O)=NC2(CCN(CC(C)C)CC2)N=5)NC(=O)/C(C)=C\C=C/[C@H](C)[C@H](O)[C@@H](C)[C@@H](O)[C@@H](C)[C@H](OC(C)=O)[C@@H]1C` as the compound, how does the Potency read?
A: inconclusive [cytotoxic, single point]

Q: For `S=C([S-])NCCNC(=S)[S-].S=C([S-])NCCNC(=S)[S-].[Mn+2].[Zn+2]`, which Potency is on record?
A: inconclusive [cytotoxic, single point]

Q: For `CN1CCC(Nc2ncc3ncnc(Nc4ccc(F)c(Cl)c4)c3n2)CC1`, which Potency is on record?
A: inconclusive [cytotoxic, single point]

Q: With `CNS(=O)(=O)CCc1ccc2[nH]cc(C3CCN(C)CC3)c2c1` as the compound, how does the “viability change, negative = cytotoxic” value read?
A: inactive: -3.03%

Q: Which Potency does the source give for `COc1c(C)c2c(c(O)c1C/C=C(\C)CCC(=O)OCCN1CCOCC1)C(=O)OC2` here?
A: inconclusive [cytotoxic, full curve, poor fit]

Q: With `CC(C)(Cc1c[nH]c2ccccc12)NCC(O)COc1ccccc1C#N` (configuration not stated) as the compound, how does the Potency read?
A: inconclusive [cytotoxic, full curve, poor fit]

Test: qHTS assay for small molecule activators of the heat shock response signaling pathway - cell viability counter screen (AID 743209); note: nearly all actives have a fitted effect of over 50% in size
Details: HSE-bla HeLa viability, CellTiter-Glo luminescence, 5 h; activity change, negative = cytotoxicity: at 62.6 µM (top of the series) unless noted
Method in brief: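 Readout: CellTiter-Glo luminescence, 30 min at room temperature. System: HSE-bla HeLa cells, 1500/well, plated overnight. Treatment: compounds in DMSO, 5 h at 37 C.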

Q: With `Clc1nnc(Cl)c2ccccc12` as the compound, how does the Potency read?
A: inconclusive [cytotoxic, partial curve, poor fit]

Q: With `Oc1ccc2ccccc2c1` as the compound, how does the Potency read?
A: inactive

Q: With `Cc1ccc(-n2nc(C(C)(C)C)cc2NC(=O)Nc2ccc(OCCN3CCOCC3)c3ccccc23)cc1` as the compound, how does the Potency read?
A: inconclusive [rising, full curve, poor fit]

Q: With `CC(C)(C)c1csc(-c2cc3cc(OCc4ccccc4CC(=O)O)ccc3o2)n1` as the compound, how does the Potency read?
A: inconclusive [cytotoxic, partial curve]

Q: For `CC(C)(C)S`, which Potency is on record?
A: inconclusive [rising, partial curve, poor fit]

Q: With `O=C1c2ccccc2C(=O)C1c1ccc2ccccc2n1` as the compound, how does the “activity change, negative = cytotoxicity” value read?
A: inactive: -8.92%

Q: With `CN(CCCN1c2ccccc2CCc2ccccc21)CC(=O)c1ccc(Cl)cc1` as the compound, how does the Potency read?
A: inconclusive [rising, partial curve, poor fit]

Q: For `CCCCCCCCCCCSCC(=O)O`, which Potency is on record?
A: active: 49 µM

Q: With `COc1nc(C)nc(Cl)c1NC1=NCCN1` as the compound, how does the Potency read?
A: inconclusive [rising, full curve]
